Measured values taken from PubChem BioAssay AID743279 (National Center for Advancing Translational Sciences (NCATS), 2014).
About 17,000 (4.7%) of roughly 360,000 compounds were called active. The shares of active, inactive and inconclusive entries below differ from those in the screen. Rule as the data show it: active = activity change below about -50%; inconclusive = mostly about -30% to -49%; inactive = weaker than that.
% is scaled to controls: 0 for no effect and ±100 for the full control effect.

Assay: qHTS for Inhibitors of Inflammasome Signaling: IL-1-beta AlphaLISA Primary Screen
Details: THP-1 LPS/ATP IL-1B secretion, 16 h; at 57.5 µM, hits give low values
How it was run: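 Secreted IL-1B measured by AlphaLISA bead assay after 16 h compound exposure of THP-1 cells; compounds (final up to 57.5 uM) added 1 h before LPS (250 ng/mL) and ATP (1.25 mM) stimulation; lower signal means less secretion.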
With `O=C(CN1C(=O)C2C3C=CC(C3)C2C1=O)OCC(=O)c1ccc(Cl)c([N+](=O)[O-])c1` (stereo unspecified) the activity change was active: -78.4%.
In the case of `CCC(=O)N1CCN(c2ccc(Cl)cc2NC(=O)c2ccc(N3CCCC3)c([N+](=O)[O-])c2)CC1`, the activity change is reported as active: -51.5%.
For `Cc1ccc(-c2nnc(SCC(=O)Nc3ccc4c(c3)oc3ccccc34)n2C)c(Cl)c1`, the activity change was inactive: -6.06%.
With `Cc1cc(OCC(=O)N(C)C2CCCCC2)ccc1Cl` the activity change was inconclusive: -30.4%.
With `Cc1nc2ccccc2nc1OCC(=O)Nc1ccc(F)cc1` the activity change was inconclusive: -34%.
For `O=C(CCNC(=O)c1ccc([N+](=O)[O-])cc1)NCCc1ccccc1`, the activity change was active: -57.3%.
With `CC(=O)n1cc([C@@H]2C=C(C(=O)NCc3ccccc3)O[C@H](OCc3ccc(CO)cc3)C2)c2ccccc21` the activity change was inconclusive: -49.2%.
With `O=C(NCCNC(=O)c1ccc(Br)o1)c1cccnc1` the activity change was “inactive”.
With `O=C(Nc1ccc2[nH]c(=O)[nH]c2c1)c1ccc([N+](=O)[O-])o1` the activity change was inconclusive: -41.5%.
For `COc1ccccc1NC(=O)c1cc(S(=O)(=O)NC2CCCC2)ccc1F`, the activity change was inconclusive: -36.8%.
With `CCOc1ccc(-c2noc(-c3cccnc3)n2)cc1OC` the activity change was inconclusive: -31.8%.
In the case of `O=c1c2cnn(-c3ccccc3)c2nc(-c2cccs2)n1-c1cccc(Cl)c1`, the activity change is reported as inactive: -2.07%.
In the case of `CCc1sc(C(=O)Nc2ccc(N3CCOCC3)cc2)cc1C`, the activity change is reported as active: -64.1%.
With `CC1CC(=O)N(C)c2cc([N+](=O)[O-])ccc2N1` (stereo unspecified) the activity change was inactive: -1.72%.
With `Cc1ccc(NC2=C(Cl)C(=O)OC2OC(=O)c2ccccc2C)cc1` (stereo unspecified) the activity change was active: -89.8%.
For `CCC(=O)N1CCc2cc(S(=O)(=O)NC(C(=O)NCc3ccccc3)C(C)C)ccc21` (stereo unspecified), the activity change was inactive: 16.7%.
For `COc1ccc([C@H]2CC(=O)C=C(c3cccc(C(F)(F)F)c3)C2)cc1`, the activity change was inconclusive: -44.6%.
For `Cc1cc(C)c(C(=O)/C=C/c2ccc3c(c2)OCO3)c(=O)[nH]1`, the activity change was active: -90.5%.
In the case of `CSc1c[n+]2c(n1C)CCC2`, the activity change is reported as inactive: 11.6%.
In the case of `Cc1cc(Cl)ccc1C(=O)C1CCCN(C(=O)c2n[nH]c3c2CCCC3)C1` (stereo unspecified), the activity change is reported as inconclusive: -37.9%.
In the case of `O=[N+]([O-])c1ccc(Cl)c(S(=O)(=O)Nc2cccc(-c3ccc(N4CCCC4)nn3)c2)c1`, the activity change is reported as inconclusive: -31.5%.
For `CCCCn1c(CNC(=O)C(C)(C)C)nc2ccccc21`, the activity change was inactive: 9.24%.
For `O=C(CCCn1c(SCc2cc(=O)n3cc(Cl)ccc3n2)nc2ccccc2c1=O)NCC1CCCO1` (stereo unspecified), the activity change was inactive: 30.3%.
In the case of `O=C(Nc1ccc(O)cc1)c1cccc(Oc2ccc([N+](=O)[O-])cc2)c1`, the activity change is reported as active: -67.6%.
In the case of `COc1cc(C(=O)NNC(=O)c2cc(S(=O)(=O)N(C)C)ccc2N2CCCC2)cc(OC)c1OC`, the activity change is reported as inconclusive: -35%.
For `CCOc1ccc(C(=O)O/N=C(\N)c2ccccn2)cc1`, the activity change was inactive: -9.39%.
With `CCC(=O)NC(=S)Nc1ccc(-c2nc3ccccc3s2)cc1` the activity change was inactive: 2.02%.
In the case of `COc1cc(OC)cc(C(=O)NCCOC23CC4CC(CC(C4)C2)C3)c1`, the activity change is reported as inconclusive: -42.1%.
In the case of `NCCCn1c(C(=O)c2ccc(Cl)cc2)c2ccc([N+](=O)[O-])cc2[n+]1[O-]`, the activity change is reported as active: -60.1%.
For `Cc1cc(C)c(C)c(C(=O)CSc2nnc(-c3ccc4[nH]c(C)c(C)c4c3)o2)c1C`, the activity change was inconclusive: -34.1%.
In the case of `Cc1ccccc1N(C(=O)c1snc(C(N)=O)c1N)C(C(=O)NCc1ccccc1)c1ccc(O)cc1` (stereo unspecified), the activity change is reported as active: -100%.
For `CC(C)[C@H](CN1CCC[C@H]1CN1C(N)=NC[C@@H]1Cc1ccccc1)N1C[C@@H](Cc2ccccc2)N(CCc2ccc(Cl)c(Cl)c2)C1=N`, the activity change was inconclusive: -46.5%.
For `CCC1=C(OC(=O)N(CC)CC)N2C(=O)OC(=NCC3CC3)[C@]2(Cc2ccccc2)[C@H]2C1=CC[C@H]1C(=O)N(c3ccccc3)C(=O)[C@H]12`, the activity change was inconclusive: -44.9%.
With `Cc1nc(C)c(-c2csc(Nc3ccc(C(=O)O)c(O)c3)n2)s1` the activity change was inconclusive: -37.5%.
With `COc1ccccc1C1CCCN1Cc1nc(-c2ccc(C)s2)oc1C` (stereo unspecified) the activity change was inactive: 0%.
With `O=C(NCCN1CCC(n2c(=O)[nH]c3ccccc32)CC1)c1cccnc1Cl` the activity change was inconclusive: -43.5%.
In the case of `O=C(COC(=O)C1(c2ccccc2F)CCCC1)NCc1cccs1`, the activity change is reported as inconclusive: -33.5%.
In the case of `CCOC(=O)[C@]12CCC=C1N(Cc1ccco1)C(=O)[C@H](CC(=O)N1CCC(c3ccccc3)CC1)C2`, the activity change is reported as inconclusive: -31.8%.
In the case of `O=C(CSc1ncnc2c1nnn2Cc1ccccc1)NC1CCCC1`, the activity change is reported as inconclusive: -30.3%.
With `CN1CCN(NC(=O)c2cc(-c3ccc(Br)s3)nc3ccccc23)CC1` the activity change was inconclusive: -36.8%.
With `CCc1cccc(CC)c1NC(=S)N(CCN(C)C)C(C)c1cccnc1` (stereo unspecified) the activity change was inconclusive: -47.6%.
